Test results: article PMC11850129
No constants are given. Whether binding was seen depends on the method and setting. Binding seen in cells or lysates may run through a third protein. Some entries that bind do so weakly or less than the wild type. For some assays here: Where a sequence is shown, tags or fusion partners need not be part of it.

Amino acid sequences for entries named in this document (tags omitted).
UniProt A2BH40: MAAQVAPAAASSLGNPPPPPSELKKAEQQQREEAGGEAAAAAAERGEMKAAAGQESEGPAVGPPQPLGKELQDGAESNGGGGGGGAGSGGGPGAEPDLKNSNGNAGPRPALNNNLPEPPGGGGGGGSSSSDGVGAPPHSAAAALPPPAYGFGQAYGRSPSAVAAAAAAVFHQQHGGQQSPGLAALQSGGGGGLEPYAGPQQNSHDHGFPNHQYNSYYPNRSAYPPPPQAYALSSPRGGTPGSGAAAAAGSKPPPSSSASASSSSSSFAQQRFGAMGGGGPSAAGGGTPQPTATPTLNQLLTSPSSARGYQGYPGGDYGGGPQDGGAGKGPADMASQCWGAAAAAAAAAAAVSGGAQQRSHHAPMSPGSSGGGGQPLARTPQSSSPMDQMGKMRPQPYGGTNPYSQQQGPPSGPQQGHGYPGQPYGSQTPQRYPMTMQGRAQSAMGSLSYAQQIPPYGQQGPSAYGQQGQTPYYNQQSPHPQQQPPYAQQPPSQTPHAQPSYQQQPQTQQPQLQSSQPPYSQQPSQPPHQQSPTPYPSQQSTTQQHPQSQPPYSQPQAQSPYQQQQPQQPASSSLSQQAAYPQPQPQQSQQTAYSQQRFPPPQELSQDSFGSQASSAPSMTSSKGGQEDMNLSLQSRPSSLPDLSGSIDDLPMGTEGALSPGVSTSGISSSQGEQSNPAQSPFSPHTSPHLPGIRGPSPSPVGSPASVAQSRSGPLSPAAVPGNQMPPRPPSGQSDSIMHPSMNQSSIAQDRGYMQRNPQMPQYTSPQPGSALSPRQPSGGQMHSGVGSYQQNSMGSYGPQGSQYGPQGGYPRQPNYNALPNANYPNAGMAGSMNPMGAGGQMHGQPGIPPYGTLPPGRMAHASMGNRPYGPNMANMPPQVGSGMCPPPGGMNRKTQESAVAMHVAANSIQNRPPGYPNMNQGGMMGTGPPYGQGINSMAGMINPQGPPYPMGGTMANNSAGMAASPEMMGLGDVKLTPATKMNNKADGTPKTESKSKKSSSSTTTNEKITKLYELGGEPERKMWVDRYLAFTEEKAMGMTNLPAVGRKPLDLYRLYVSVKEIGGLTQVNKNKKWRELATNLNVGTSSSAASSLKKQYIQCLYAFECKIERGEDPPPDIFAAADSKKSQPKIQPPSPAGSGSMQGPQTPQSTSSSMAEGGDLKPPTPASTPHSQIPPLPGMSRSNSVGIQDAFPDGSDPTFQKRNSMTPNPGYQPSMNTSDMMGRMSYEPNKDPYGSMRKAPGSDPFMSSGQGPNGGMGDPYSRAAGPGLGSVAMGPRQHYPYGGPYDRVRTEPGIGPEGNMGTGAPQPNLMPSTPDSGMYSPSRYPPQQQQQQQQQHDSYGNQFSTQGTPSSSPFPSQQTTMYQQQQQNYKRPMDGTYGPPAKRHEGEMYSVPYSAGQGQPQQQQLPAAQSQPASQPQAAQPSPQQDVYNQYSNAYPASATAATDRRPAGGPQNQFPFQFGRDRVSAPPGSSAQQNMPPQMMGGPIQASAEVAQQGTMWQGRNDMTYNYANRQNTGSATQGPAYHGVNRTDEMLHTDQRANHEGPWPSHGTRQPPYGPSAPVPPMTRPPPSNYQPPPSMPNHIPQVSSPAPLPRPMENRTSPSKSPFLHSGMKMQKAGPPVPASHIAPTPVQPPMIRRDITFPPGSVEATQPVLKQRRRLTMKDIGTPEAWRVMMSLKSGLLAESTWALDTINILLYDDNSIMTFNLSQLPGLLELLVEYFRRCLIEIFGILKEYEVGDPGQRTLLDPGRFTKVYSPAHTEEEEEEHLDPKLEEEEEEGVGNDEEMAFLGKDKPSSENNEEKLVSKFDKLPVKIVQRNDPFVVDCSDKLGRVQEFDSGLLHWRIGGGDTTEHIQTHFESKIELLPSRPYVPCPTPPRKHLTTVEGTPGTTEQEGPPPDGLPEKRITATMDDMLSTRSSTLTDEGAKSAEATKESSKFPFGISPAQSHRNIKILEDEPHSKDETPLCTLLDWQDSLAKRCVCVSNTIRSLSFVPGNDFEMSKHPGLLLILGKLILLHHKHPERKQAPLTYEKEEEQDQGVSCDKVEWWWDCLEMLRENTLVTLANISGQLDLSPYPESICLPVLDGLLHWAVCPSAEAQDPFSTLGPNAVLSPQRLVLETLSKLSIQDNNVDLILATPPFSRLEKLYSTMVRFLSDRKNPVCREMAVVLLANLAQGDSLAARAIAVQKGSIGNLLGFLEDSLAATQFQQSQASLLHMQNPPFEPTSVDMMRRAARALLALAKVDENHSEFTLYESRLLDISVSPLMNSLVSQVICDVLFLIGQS
UniProt O54941: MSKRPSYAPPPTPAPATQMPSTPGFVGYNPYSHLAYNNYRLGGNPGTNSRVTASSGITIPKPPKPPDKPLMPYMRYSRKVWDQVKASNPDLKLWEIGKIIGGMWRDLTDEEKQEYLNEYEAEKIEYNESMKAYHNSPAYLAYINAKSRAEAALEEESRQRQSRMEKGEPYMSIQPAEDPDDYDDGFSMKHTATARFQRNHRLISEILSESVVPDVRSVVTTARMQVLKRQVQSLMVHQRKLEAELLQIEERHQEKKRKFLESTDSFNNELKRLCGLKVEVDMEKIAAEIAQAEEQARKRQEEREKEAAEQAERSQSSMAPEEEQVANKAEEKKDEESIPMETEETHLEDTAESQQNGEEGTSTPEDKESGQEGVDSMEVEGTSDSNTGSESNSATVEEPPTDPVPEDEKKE
UniProt Q9Y265: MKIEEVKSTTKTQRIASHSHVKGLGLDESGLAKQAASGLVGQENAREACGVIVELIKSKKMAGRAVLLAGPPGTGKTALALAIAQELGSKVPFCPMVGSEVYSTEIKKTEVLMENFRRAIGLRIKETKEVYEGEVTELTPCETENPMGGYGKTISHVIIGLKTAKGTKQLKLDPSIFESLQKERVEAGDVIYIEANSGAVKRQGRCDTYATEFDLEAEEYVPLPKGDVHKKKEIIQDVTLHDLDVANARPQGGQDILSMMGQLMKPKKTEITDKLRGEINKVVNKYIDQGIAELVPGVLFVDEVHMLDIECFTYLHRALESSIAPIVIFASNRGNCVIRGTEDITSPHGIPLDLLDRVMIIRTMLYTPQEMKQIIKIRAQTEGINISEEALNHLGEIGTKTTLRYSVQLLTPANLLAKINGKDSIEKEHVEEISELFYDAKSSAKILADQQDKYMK
UniProt Q08874: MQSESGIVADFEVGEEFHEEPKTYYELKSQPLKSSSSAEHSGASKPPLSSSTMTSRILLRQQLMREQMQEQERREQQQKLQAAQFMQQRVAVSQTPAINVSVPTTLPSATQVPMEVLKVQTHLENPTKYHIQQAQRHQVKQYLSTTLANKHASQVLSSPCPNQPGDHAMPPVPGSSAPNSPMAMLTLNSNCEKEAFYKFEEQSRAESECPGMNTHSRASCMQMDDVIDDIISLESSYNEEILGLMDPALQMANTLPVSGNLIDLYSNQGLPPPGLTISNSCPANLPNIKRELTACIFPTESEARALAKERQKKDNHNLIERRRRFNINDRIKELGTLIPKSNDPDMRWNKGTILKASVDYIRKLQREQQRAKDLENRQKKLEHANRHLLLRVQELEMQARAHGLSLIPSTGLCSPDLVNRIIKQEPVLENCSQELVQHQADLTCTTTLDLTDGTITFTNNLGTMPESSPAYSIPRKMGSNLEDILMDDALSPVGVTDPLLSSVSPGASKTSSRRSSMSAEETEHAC
UniProt P35222: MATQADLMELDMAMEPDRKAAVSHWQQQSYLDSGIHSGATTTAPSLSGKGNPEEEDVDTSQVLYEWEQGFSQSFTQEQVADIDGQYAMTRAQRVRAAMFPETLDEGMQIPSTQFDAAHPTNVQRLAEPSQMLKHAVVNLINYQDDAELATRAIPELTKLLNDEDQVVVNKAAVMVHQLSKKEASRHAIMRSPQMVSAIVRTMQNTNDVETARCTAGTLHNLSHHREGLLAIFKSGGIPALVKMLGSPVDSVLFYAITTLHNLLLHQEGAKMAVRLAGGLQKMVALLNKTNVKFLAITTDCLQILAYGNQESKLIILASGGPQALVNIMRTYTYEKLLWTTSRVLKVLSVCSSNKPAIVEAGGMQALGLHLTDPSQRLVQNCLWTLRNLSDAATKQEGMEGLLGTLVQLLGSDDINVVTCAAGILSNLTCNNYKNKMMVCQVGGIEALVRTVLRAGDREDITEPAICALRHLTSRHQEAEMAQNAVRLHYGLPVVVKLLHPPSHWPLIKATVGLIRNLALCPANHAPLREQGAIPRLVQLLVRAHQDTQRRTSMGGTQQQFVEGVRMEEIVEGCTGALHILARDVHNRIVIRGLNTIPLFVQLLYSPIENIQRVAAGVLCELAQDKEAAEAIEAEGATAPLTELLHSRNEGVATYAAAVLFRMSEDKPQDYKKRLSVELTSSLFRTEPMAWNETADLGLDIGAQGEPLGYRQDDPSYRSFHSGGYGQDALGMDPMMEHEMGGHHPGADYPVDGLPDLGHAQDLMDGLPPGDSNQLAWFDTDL
UniProt Q3TKT4: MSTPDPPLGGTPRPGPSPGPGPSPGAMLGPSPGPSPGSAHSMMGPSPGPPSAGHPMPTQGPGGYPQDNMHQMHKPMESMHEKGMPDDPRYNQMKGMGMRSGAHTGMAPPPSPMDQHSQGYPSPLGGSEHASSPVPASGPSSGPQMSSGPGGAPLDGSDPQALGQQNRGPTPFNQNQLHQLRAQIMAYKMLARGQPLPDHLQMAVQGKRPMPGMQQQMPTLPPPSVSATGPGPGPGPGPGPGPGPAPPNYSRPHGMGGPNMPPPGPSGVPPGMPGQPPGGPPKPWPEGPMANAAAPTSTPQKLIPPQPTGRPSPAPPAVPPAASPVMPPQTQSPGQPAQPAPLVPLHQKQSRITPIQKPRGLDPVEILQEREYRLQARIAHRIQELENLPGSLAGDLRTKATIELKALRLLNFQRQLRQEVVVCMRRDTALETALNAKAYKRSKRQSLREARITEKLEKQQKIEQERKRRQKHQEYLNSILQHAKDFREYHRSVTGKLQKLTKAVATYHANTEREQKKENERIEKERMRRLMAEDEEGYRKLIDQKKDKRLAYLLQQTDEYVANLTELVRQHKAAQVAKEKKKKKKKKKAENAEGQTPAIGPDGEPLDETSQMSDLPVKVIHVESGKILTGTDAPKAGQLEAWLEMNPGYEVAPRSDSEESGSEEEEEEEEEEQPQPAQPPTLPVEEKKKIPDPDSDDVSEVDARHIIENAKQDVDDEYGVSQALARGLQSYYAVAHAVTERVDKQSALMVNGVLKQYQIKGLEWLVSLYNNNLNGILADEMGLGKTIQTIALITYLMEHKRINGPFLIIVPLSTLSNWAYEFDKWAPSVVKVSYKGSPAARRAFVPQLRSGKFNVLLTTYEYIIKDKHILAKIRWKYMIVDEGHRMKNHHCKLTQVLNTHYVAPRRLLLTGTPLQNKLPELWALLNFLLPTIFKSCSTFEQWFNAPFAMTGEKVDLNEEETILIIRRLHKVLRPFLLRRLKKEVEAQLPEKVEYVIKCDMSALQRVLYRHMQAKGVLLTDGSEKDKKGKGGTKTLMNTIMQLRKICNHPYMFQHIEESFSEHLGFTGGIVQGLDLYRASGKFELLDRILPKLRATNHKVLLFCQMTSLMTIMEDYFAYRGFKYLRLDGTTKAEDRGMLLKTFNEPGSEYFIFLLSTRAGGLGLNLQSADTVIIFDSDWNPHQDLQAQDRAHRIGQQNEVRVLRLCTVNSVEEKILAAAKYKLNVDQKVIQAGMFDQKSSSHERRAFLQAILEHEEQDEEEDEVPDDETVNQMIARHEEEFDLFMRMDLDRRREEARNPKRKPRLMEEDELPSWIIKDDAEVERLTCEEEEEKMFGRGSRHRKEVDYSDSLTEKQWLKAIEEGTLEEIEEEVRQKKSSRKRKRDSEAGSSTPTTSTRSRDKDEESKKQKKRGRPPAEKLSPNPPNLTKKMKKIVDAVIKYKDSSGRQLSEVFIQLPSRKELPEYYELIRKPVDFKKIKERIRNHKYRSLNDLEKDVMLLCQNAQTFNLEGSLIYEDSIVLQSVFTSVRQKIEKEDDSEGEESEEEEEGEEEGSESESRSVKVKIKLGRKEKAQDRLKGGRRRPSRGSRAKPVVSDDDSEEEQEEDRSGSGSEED

Experiments:
[1] = target: T1, Histidine triad nucleotide binding protein1 (HINT1) (mouse (endogenous in P19.CL6 cells and mouse heart)) (UniProt P70349); experiment: co-IP; endogenous HINT1 precipitated with anti-HINT1 antibody from heart tissue lysates of young (3-month-old) and aged (24-26-month-old) mice; 1% Triton X-100 lysis buffer, overnight at 4 °C, Dynabeads Protein G; immunoblot
T1 sequence: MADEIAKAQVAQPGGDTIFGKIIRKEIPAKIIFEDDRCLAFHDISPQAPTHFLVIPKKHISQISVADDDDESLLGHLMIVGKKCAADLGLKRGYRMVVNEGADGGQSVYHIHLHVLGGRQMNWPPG

[2] = target: AT-rich interactive domain-containing protein 1 (ARID1A) (mouse (endogenous in P19.CL6 cells and mouse heart)) (UniProt A2BH40); experiment: co-IP; endogenous ARID1A precipitated with anti-ARID1A antibody from heart tissue lysates of young (3-month-old) and aged (24-26-month-old) mice; 1% Triton X-100 lysis buffer, overnight at 4 °C, Dynabeads Protein G; immunoblot
[3] = target: T1, Histidine triad nucleotide binding protein1 (HINT1) (mouse (endogenous in P19.CL6 cells and mouse heart)); experiment: co-IP; endogenous HINT1 precipitated with anti-HINT1 antibody (control: normal rabbit IgG) from P19.CL6 cell lysates, also control and Smarce1 KO P19.CL6 lines; 1% Triton X-100 lysis buffer (20 mM Tris-HCl, 150 mM NaCl, pH 7.5), overnight at 4 °C, Dynabeads Protein G; immunoblot
Flag-tagged HINT1 = target: T2, Flag-tagged HINT1 (UniProt P70349); experiment: co-IP; Flag-tagged HINT1 precipitated with Anti-DDDDK-tag mAb-Magnetic Beads from lysates of transfected HEK293 cells (alone or with HA-tagged MITF), 2 h at 4 °C, 1% Triton X-100 lysis buffer; immunoblot for HA-tag, Pontin and β-catenin
T2 sequence: T1 sequence

Substance | binding [1] | binding [2] | binding [3] | binding (Flag-tagged HINT1)
SWI/SNF-related matrix associated actin-dependent regulator of chromatin E1 (SMARCE1) (from UniProt O54941 1-411) | binds | binds | binds | –
Pontin (from UniProt Q9Y265 1-456) | – | – | – | no binding
AT-rich interactive domain-containing protein 1 (ARID1A) (from UniProt A2BH40 1-2283) | binds | – | binds | –
HA-tagged MITF (from UniProt Q08874 1-526) | – | – | – | no binding
β-catenin (from UniProt P35222 1-781) | – | – | – | no binding
BRM/SWI2-related gene-1 (BRG1) (from UniProt Q3TKT4 1-1613) | binds | binds | binds | –
